# Reference: PubChem BioAssay AID652106 (National Center for Advancing Translational Sciences (NCATS), 2013)
# Hit rate of the full screen: of about 370,000 compounds, about 500 (0.14%) were called active. Inconclusive means that the source gave no clear call. Such entries were picked first, then a sample of the others. The call rests on the fitted dose curve; in most records, active means well fitted activation curve with a large enough effect; inconclusive means small, poorly fitted or top-dose-only effect; inactive means no such curve, though single readings can be large or run the other way. No potency is given beside an inconclusive call; the fits are too rough.
# Assay: qHTS of alpha-syn Inhibitors; further: nearly all actives have a fitted effect of over 65% in size; on growth rescue (activation): % of control where 0% means no effect
# Settings: Yeast expressing alpha-synuclein, BacTiter-Glo, 24 h; Potency: growth rescue unless noted; growth rescue (activation): at 46.1 µM (top of the series) unless noted
# Procedure, shortened: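 Rescue of yeast growth: cells expressing toxic alpha-synuclein, induced in galactose at OD600 0.02, incubated with compound 24 h at 30 C. ATP luminescence quantified growth; inhibitors of toxicity appear as activators.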
# Potency means the concentration at half of the fitted maximal effect; tags describe the fitted curve by direction and shape.
SMILES,Potency,growth rescue (activation)
N=c1n(CCCOc2ccc(F)cc2)c2ccccc2n1CC(N)=O,inactive,
Cc1ccc(O)c(C(=O)CC(=O)c2ccccc2Cl)c1,"inconclusive [activator, single point]",
O=C(O)CCc1ccc(S(=O)(=O)Nc2ccccc2N2CCCCC2)cc1,"inconclusive [activator, single point]",
O=C(Nc1cccnc1)C1Cc2c(-c3ccc4c(c3)OCO4)ccnc2O1 (centres undefined),inactive,
Cc1c(/C=N/O)c2ccccn2c1C(=O)c1ccc(F)cc1,"inconclusive [activator, partial curve]",
CCCNC(=O)COC(=O)/C=C/c1ccco1,"inconclusive [activator, single point]",
CC(=NNC(=S)N1CCCC1)c1ccccn1,"inconclusive [activator, single point]",
OCCn1nc(-c2ccccc2)cc1-c1ccccc1,"inconclusive [activator, single point]",
COc1cccc2c1Oc1cc([N+](=O)[O-])cc(N(C)C(C)=O)c1C=C2,"inconclusive [activator, single point]",
Nc1nc(SCC(=O)N2N=C3/C(=C\c4ccco4)CCCC3C2c2ccco2)n[nH]1 (centres undefined),inactive,
Cc1ccc(C(=O)NCCCNC(=O)COc2ccccc2Cl)cn1,"inconclusive [activator, single point]",
COc1ccc(OC)c(S(=O)(=O)Nc2ccc3c(c2)OCCO3)c1,"inconclusive [activator, single point]",
CC(=O)c1cccc(Nc2nc3ccccc3n3cnnc23)c1,"inconclusive [activator, single point]",
COc1ccc(OCC(O)CN2CCN(c3ccccc3)CC2)cc1 (centres undefined),inactive,
COCCNC(=O)CSc1nc(-c2ccccc2)c(-c2ccccc2)o1,inactive,
COCCCNC(=O)CCn1c(=O)c2ccccc2n(Cc2cccc([N+](=O)[O-])c2)c1=O,"inconclusive [activator, single point]",
O=C(COc1cc(F)ccc1[N+](=O)[O-])NCCCc1ccccc1,inactive,
CC1(C)N=C(N)N=C(N)N1c1ccc(CCCCc2ccccc2)cc1,inactive,
Cc1ccc(C2=NNC(=O)C(c3ccc(Cl)cc3)C2)cc1 (centres undefined),inactive,
CCOC(=O)C1CCN(C(c2cc3c(C)ccc(C)c3[nH]c2=O)c2nnnn2C2CCCCC2)CC1 (centres undefined),inactive,
FCCCOc1ccc(-c2nccc(-c3ccccn3)n2)cc1,"inconclusive [activator, single point]",
COc1ccc(C(C)(O)c2nc(-c3ccccc3C)cs2)cc1 (centres undefined),"inconclusive [activator, single point]",
CCOc1ccccc1N1CCN(C(=O)c2ccc3[nH]c4c(c3c2)CCCC4)CC1,"inconclusive [activator, single point]",

SMILES,Potency,growth rescue (activation)
COc1ccc(OCCNC(=O)C2(C)CCN2Cc2ccc3ccccc3c2)cc1 (centres undefined),"inconclusive [activator, single point]",
CC(=O)N1CCN(Cc2cc(=O)oc3cc(C)ccc23)CC1,"inconclusive [activator, single point]",
O=S(=O)(c1ccc(F)cc1)N1CCN(c2nc(-c3ccc(F)cc3)nc3cc(Cl)ccc23)CC1,"inconclusive [activator, single point]",
COc1ccc(OC)c(NC(=O)Cc2coc3ccc(C)cc23)c1,"inconclusive [activator, partial curve]",
O=C(CCc1ccccc1)NNC(=O)c1ccccn1,"inconclusive [activator, single point]",
O=C(O)c1ccc(CP(=O)(c2ccccc2)c2ccccc2)cc1,inactive,
C[C@H](NC(=O)c1ccc(Cl)c(S(=O)(=O)N2CCOCC2)c1)c1nc2ccccc2[nH]1,inactive,
O=C(O)C1CN(CCCP(=O)(O)O)CCN1 (centres undefined),inactive,
CN1CCN(C2CCN(c3ccc(Nc4nnc(Cl)c(Nc5ccccc5S(C)(=O)=O)n4)c(OC(CF)CF)c3)CC2)CC1,"inconclusive [activator, single point]",
O/N=C/c1ccn(-c2ccc(Br)cc2)c1,inactive,
NC(=O)C1CCN(CCCNC2CC(=O)N(Cc3ccc(N4CCCC4=O)cc3)C2=O)CC1 (centres undefined),"inconclusive [activator, single point]",
c1ccc(-c2c(-c3ccccc3)n(Cc3ccco3)c3ncnc(NCCCn4ccnc4)c23)cc1,,inconclusive: -55% [activator]
COc1ccc(-c2nc(N3CCN(S(=O)(=O)c4ccc(C)cc4)CC3)c3ccccc3n2)cc1,inactive,
COc1ccc(CNC(=O)c2cccc(NC3=NC4CS(=O)(=O)CC4S3)c2)cc1 (centres undefined),"inconclusive [activator, single point]",
CC(C)(O)C#Cc1ccc(CN2CCN(C3CCCCC3)C(CCO)C2)cc1 (centres undefined),inactive,
CC1(C)CCC[C@@]2(C)CC=C(C(=O)O)[C@@H]3C[C@]312,"inconclusive [activator, single point]",
CCC(CO)n1c(SCc2cc(=O)oc3cc(C)ccc23)nc2ccccc2c1=O (centres undefined),"inconclusive [activator, single point]",
CN(Cc1ccccc1F)C(=O)c1ccc(NS(=O)(=O)c2ccc3[nH]c(=O)[nH]c3c2)cc1,inactive,
CCc1nc2ccc(C(=O)NCCOc3ccc(OC)cc3)cn2c1N(CCN(C)C)CC1CC1,"inconclusive [activator, single point]",
COc1ccc(/C=N\NC(=S)SCN2C(=O)C3CCC(C)(C2=O)C3(C)C)cc1 (centres undefined),"inconclusive [activator, single point]",
Cc1ccc([N+](=O)[O-])cc1S(=O)(=O)NCC1COc2ccccc2O1 (centres undefined),"inconclusive [activator, single point]",
NNc1nc(-c2ccccc2Cl)c2cc(Br)ccc2n1,inactive,
CCOc1ccc(NC(=O)COc2ccc(C(=O)NCc3cccc(OC)c3)cc2OC)cc1,"inconclusive [activator, single point]",

SMILES,Potency,growth rescue (activation)
O=C(O)c1ccccc1-n1c2ccccc2c2ccccc21,"inconclusive [activator, single point]",
COc1ccc(C(=O)N2CCC2(C)C(=O)O)cc1C(F)(F)F (centres undefined),"inconclusive [activator, partial curve, poor fit]",
COc1ccccc1/C=C/C(=O)NCC(=O)N1CCC(N(C)C2CCCC2)CC1,"inconclusive [activator, single point]",
CC(=NNC(=S)Nc1ccc(C)cc1)c1ccccn1,,inconclusive: -55% [activator]
COC(=O)c1ccc2nc(-c3ccco3)c(Cc3ccc(C)cc3)n2c1,"inconclusive [activator, partial curve]",
CCN1CCN(CCNC(=O)c2ccc3c(c2)NC(=O)/C(=C\c2cccc(Cl)c2)S3)CC1,"inconclusive [activator, single point]",
Cc1ccc(S(=O)(=O)NCCC(=O)Oc2ccc3ccc(=O)oc3c2)cc1,inactive,
CC(C)c1ccc(NC(=O)C2Cc3c(-c4ccco4)ccnc3O2)cc1 (centres undefined),"inconclusive [activator, single point]",
COc1ccc(S(=O)(=O)N2CCOC2CNC(=O)C(=O)NCCCN2CCOCC2)cc1C (centres undefined),"inconclusive [activator, single point]",
Cc1ccccc1NC(=O)N1C2CCC1CC(O)(c1cccnc1)C2 (centres undefined),inactive,
Cc1cccc(Cn2cc(C(=O)Nc3cc(F)ccc3F)ccc2=O)c1,"inconclusive [activator, single point]",
O=C(CCCOc1ccc(Cl)cc1Cl)N/N=C/c1ccccc1O,active: 22.4 µM,
CCCC(=O)C1C(=O)CC(C)(C)C(c2cc(C)no2)C1=O (centres undefined),"inconclusive [activator, single point]",
O=C(Cn1c2ccc(F)cc2c2nc3n(c(=O)c21)CCS3)N1CCCC1,inactive,
Cc1cccc(COCC(Cc2ccccc2)N2CCN(C(=O)c3ccc(Cl)c(Cl)c3)CCC2=O)c1 (centres undefined),"inconclusive [activator, single point]",
Cc1cc(NS(=O)(=O)c2ccc(NC(=O)c3ccccc3F)cc2)no1,inactive,
COC(=O)c1sc(=S)sc1C(=O)OC,"inconclusive [activator, partial curve]",
CCc1ccc(Cn2nnc(C(=O)Nc3ccc(OC)cc3OC)c2N)cc1,"inconclusive [activator, single point]",
CCOC(=O)[C@]12CCC=C1N(Cc1cccc3ccccc13)C(=O)[C@H](CC(=O)N1CCCC1)C2,"inconclusive [activator, partial curve]",
CC(C)c1ccc(C2NC(C(=O)O)CS2)cc1 (centres undefined),"inconclusive [activator, single point]",
COc1ccc(CS(=O)(=O)/C(Cl)=C(/Cl)C(=O)Nc2ccc(OC)nc2)cc1,"inconclusive [activator, single point]",
Cc1ccc(NC(=O)CCc2nc3sc4c(c3c(=O)[nH]2)CCCC4)c(Br)c1,"inconclusive [activator, single point]",
O=C1c2ccccc2NC(c2ccc(-c3cccc([N+](=O)[O-])c3)o2)N1O (centres undefined),"inconclusive [activator, single point]",
